Measurements: paper PMC8509488

What was measured:
[1] = molecular target: CgHspB1C145S, CgHspB1 mutant with Cys145 replaced by Ser (Chinese hamster); assay: AUC; sedimentation velocity, 40 °C, 0.05 mg/mL (table head prints 0.50 mg/mL), with DTT
[2] = molecular target: CgHspB1C145S, CgHspB1 mutant with Cys145 replaced by Ser (Chinese hamster); assay: AUC; sedimentation velocity, 40 °C, 0.05 mg/mL (table head prints 0.50 mg/mL), without DTT
[3] = molecular target: HspB1 from Chinese hamster, wild type (CgHspB1WT) (Chinese hamster); assay: AUC; sedimentation velocity, 40 °C, 0.5 mg/mL, without DTT (series with and without DTT)
[4] = molecular target: HspB1 from Chinese hamster, wild type (CgHspB1WT) (Chinese hamster); assay: AUC; sedimentation velocity, 40 °C, 0.5 mg/mL, with DTT
[5] = molecular target: HspB1 from Chinese hamster, wild type (CgHspB1WT) (Chinese hamster); assay: AUC; sedimentation velocity, 40 °C, 0.05 mg/mL (table head prints 0.50 mg/mL), with DTT
[6] = molecular target: HspB1 from Chinese hamster, wild type (CgHspB1WT) (Chinese hamster); assay: AUC; sedimentation velocity, 40 °C, 0.05 mg/mL (table head prints 0.50 mg/mL), without DTT
[7] = molecular target: HspB1 from Chinese hamster, wild type (CgHspB1WT) (Chinese hamster); assay: AUC; sedimentation velocity, Rayleigh interference optics, 40,000 rpm, buffer containing 20% ethylene glycol; 4 °C, 0.1 mg/mL
[8] = molecular target: HspB1 from Chinese hamster, wild type (CgHspB1WT) (Chinese hamster); assay: AUC; sedimentation velocity, Rayleigh interference optics, 40,000 rpm, buffer containing 20% ethylene glycol; 25 °C, 0.1 mg/mL
[9] = molecular target: HspB1 from Chinese hamster, wild type (CgHspB1WT) (Chinese hamster); assay: AUC; sedimentation velocity, Rayleigh interference optics, 40,000 rpm, buffer containing 20% ethylene glycol; 40 °C, 0.1 mg/mL
[10] = molecular target: HspB1 from Chinese hamster, wild type (CgHspB1WT) (Chinese hamster); assay: AUC; sedimentation velocity, Rayleigh interference optics, 40,000 rpm, buffer containing 20% ethylene glycol; 40 °C, 0.5 mg/mL

## CgHspB1C145S, CgHspB1 mutant with Cys145 replaced by Ser (natural protein)
[1]; peak a
  stoichiometry N: 3
[1]; peak b
  stoichiometry N: 16
[1]; peak c
  stoichiometry N: 22
[2]; peak a
  stoichiometry N: 5
[2]; peak b
  stoichiometry N: 22

## HspB1 from Chinese hamster, wild type (CgHspB1WT) (natural protein)
[3]; c(s20,w) peak a
  stoichiometry N: 2
[3]; c(s20,w) peak b
  stoichiometry N: 7
[3]; c(s20,w) peak c
  stoichiometry N: 12
[3]; c(s20,w) peak d
  stoichiometry N: 20
[3]; c(s20,w) peak e
  stoichiometry N: 26
[3]; c(s20,w) peak f
  stoichiometry N: 36
[4]; c(s20,w) peak a
  stoichiometry N: 2
[4]; c(s20,w) peak b
  stoichiometry N: 7
[4]; c(s20,w) peak c
  stoichiometry N: 13
[4]; c(s20,w) peak d
  stoichiometry N: 18
[4]; c(s20,w) peak e
  stoichiometry N: 22
[4]; c(s20,w) peak f
  stoichiometry N: 30
[5]; c(s20,w) peak a
  stoichiometry N: 2
[5]; c(s20,w) peak b
  stoichiometry N: 6
[5]; c(s20,w) peak c
  stoichiometry N: 9
[5]; c(s20,w) peak d
  stoichiometry N: 14
[5]; c(s20,w) peak e
  stoichiometry N: 32
[6]; c(s20,w) peak a
  stoichiometry N: 2
[6]; c(s20,w) peak b
  stoichiometry N: 6
[6]; c(s20,w) peak c
  stoichiometry N: 11
[6]; c(s20,w) peak d
  stoichiometry N: 18
[6]; c(s20,w) peak e
  stoichiometry N: 29
[7]; peak a
  stoichiometry N: 7
[7]; peak b
  stoichiometry N: 19
[7]; peak c
  stoichiometry N: 28
[8]; peak a
  stoichiometry N: 6
[8]; peak b
  stoichiometry N: 13
[8]; peak c
  stoichiometry N: 19
[9]; peak a
  stoichiometry N: 2
[9]; peak b
  stoichiometry N: 6
[9]; peak c
  stoichiometry N: 12
[9]; peak d
  stoichiometry N: 17
[9]; peak e
  stoichiometry N: 26
[9]; peak f
  stoichiometry N: 34
[10]; peak b
  stoichiometry N: 6
[10]; peak c
  stoichiometry N: 14
[10]; peak d
  stoichiometry N: 21
[10]; peak e
  stoichiometry N: 24
[10]; peak f
  stoichiometry N: 36

Some values that stand alone complete this part of the results.
